# PubChem BioAssay (Tox21)
# “And” between values parts separate entries of the source, which are not always exact repeats. Equal entries are not always repeated. The shares of active, inactive and inconclusive entries below differ from those in the screen. For part of these data: Potencies beside an inconclusive call are fits to weak or partial responses and may not hold up. The source made the active and inactive calls. Unless noted, the call rests on the fitted dose curve; in most records, active means well fitted curve in the direction sought with a large enough effect in the repeat runs; inconclusive means weak or mixed curves; inactive means no such curve, though single readings can be large; an effect the other way counts as inactive or inconclusive.
# Columns and labels:
# [1] = qHTS RealTime-Glo MT Cell Viability Assay in HEK293 cells - 32 hour (AID 1224868); further: nearly all actives have a fitted effect of over 50% in size; further: potency means the concentration at half of the fitted maximal effect
# In short: (§1)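 Cells + reagent dispensed (600 cells/well, HEK293) → 5 h at 37 C/5% CO2 → 23 nL compound in DMSO pinned → 40 h at 37 C → luminescence read at 0, 8, 16, 24, 32, 40 h.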
# [2] = qHTS RealTime-Glo MT Cell Viability Assay in HEK293 cells - 24 hour (AID 1224886); further: nearly all actives have a fitted effect of over 50% in size; further: potency means the concentration at half of the fitted maximal effect
# In short: as §1
# [3] = qHTS RealTime-Glo MT Cell Viability Assay in HEK293 cells - 8 hour (AID 1224887); further: potency means the concentration at half of the fitted maximal effect; nearly all actives have a fitted effect of over 50% in size
# In short: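 600 cells/well were plated with the nonlytic NanoLuc/prosubstrate reagent, pre-incubated 5 h, then given 23 nL of compound in DMSO. Incubation at 37 C for 40 h, with luminescence from viable-cell-reduced substrate read repeatedly from 0 h.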
# [4] = qHTS assay for identifying genotoxic compounds that show differential cytotoxicity against isogenic chicken DT40 cell lines with known DNA damage response pathways - wild type cell line (AID 743012); conditions: DT40 wild type chicken cells viability, CellTiter-Glo, 40 h; activity change, negative = cytotoxicity: at 68.4 µM (top of the series) unless noted; further: potency means the concentration at half of the fitted maximal effect; nearly all actives have a fitted effect of over 60% in size
# In short: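 Wild-type DT40 cells (300/well) exposed to compounds for 40 hours at 37 C/5% CO2. Viability read by CellTiter-Glo luminescence after 30 min at room temperature.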
# [5] = target: Peroxisome proliferator-activated receptor gamma (Homo sapiens) (UniProt P37231); assay: qHTS assay to identify small molecule agonists of the peroxisome proliferator-activated receptor gamma (PPARg) signaling pathway (AID 743094; active means well fitted activation curve with a large enough effect in the signal ratio in the repeat runs, not every such curve was filed as active; inconclusive means weak or mixed curves, or effect the other way; inactive means no such curve, though single readings can be large or run the other way; the % refers to the signal ratio; further: potency means the concentration at half of the fitted maximal effect; on activation: on the % scale 0 is the no-effect control and ±100 the full control effect); conditions: HEK293H PPARg-UAS-bla, beta-lactamase FRET ratio, 17 h; activation: at 57 µM (top of the series) unless noted
# Sequence of UniProt P37231 (P37231 whole entry, looked up): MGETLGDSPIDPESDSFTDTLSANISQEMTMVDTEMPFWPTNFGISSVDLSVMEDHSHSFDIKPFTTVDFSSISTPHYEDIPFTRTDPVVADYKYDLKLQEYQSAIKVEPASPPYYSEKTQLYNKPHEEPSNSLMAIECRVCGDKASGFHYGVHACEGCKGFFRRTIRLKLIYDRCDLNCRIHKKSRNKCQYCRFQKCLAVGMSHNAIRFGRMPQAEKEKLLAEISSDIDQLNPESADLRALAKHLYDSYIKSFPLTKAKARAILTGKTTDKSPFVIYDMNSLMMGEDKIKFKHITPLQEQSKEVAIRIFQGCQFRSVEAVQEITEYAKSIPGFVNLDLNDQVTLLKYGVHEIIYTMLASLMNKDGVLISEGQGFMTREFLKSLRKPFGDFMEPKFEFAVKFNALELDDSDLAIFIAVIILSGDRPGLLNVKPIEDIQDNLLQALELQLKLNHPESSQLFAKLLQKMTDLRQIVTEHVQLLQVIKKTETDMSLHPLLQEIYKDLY
# In short: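 GeneBLAzer PPARg UAS-bla HEK293H cells were plated, rested 5 h, then exposed to compounds for 17 h at 37C. Beta-lactamase activity was read by LiveBLAzer B/G FRET substrate fluorescence after 1 h at room temperature.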
# [6] = qHTS assay to identify small molecule antagonists of the peroxisome proliferator-activated receptor gamma (PPARg) signaling pathway - cell viability counter screen (AID 743194); conditions: PPARg-bla HEK293H viability, CellTiter-Glo luminescence, 17 h; Potency: co-treated with 50 nM rosiglitazone unless noted; activity change, negative = cytotoxicity: at 62.6 µM (top of the series), co-treated with 50 nM rosiglitazone unless noted; further: on the % scale 0 is the no-effect control and ±100 the full control effect; nearly all actives have a fitted effect of over 55% in size
# In short: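 Cytotoxicity counter screen in PPARg-bla HEK293H cells, same wells as reporter assay. Compounds plus 50 nM rosiglitazone (final) for 17 h at 37 C, then viability read by CellTiter-Glo luminescence.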
# [7] = qHTS assay to identify small molecule agonists of the peroxisome proliferator-activated receptor delta (PPARd) signaling pathway - cell viability counter screen (AID 743211); conditions: PPARd-bla HEK293H viability, CellTiter-Glo luminescence, 17 h; activity change, negative = cytotoxicity: at 62.6 µM (top of the series); further: potency means the concentration at half of the fitted maximal effect; nearly all actives have a fitted effect of over 55% in size
# In short: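 PPARd-bla HEK293H cells (3000/well) were pre-incubated 5 h at 37 C, then exposed to compound for 17 h at 37 C. After 2 h with LiveBLAzer substrate, CellTiter-Glo was added to the same wells; luminescence read after 30 min at room temperature.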
# [8] = qHTS assay to identify small molecule agonists of H2AX (AID 1224845; active means well fitted activation curve with a large enough effect in the signal ratio in the repeat runs, not every such curve was filed as active; inconclusive means weak or mixed curves; the % refers to the signal ratio; further: on the % scale 0 is the no-effect control and ±100 the full control effect); conditions: CHO-K1 phospho-H2AX Ser139 HTRF, 3 h; activation (H2AX phosphorylation): at 154 µM (top of the series) unless noted
# In short: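 Wild-type CHO-K1 cells, plated overnight, exposed 3hr at 37C to 15 concentrations (0.76% DMSO final). Lysed, then HTRF anti-pH2AX (S139) cryptate and anti-H2AX-d2 antibodies, 24 hr room temperature; 665/620 nm emission read.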
# [9] = A CellTox Green Cytotoxicity Assay to monitor cytotoxicity in HEK293 cells - 40 hour (AID 1224871); further: nearly all actives have a fitted effect of over 45% in size; further: potency means the concentration at half of the fitted maximal effect
# In short: (§2)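 HEK293 cells, 600/well, were preincubated 5 hours and then exposed to compounds at 37 C for up to 40 hours. A cell-impermeant cyanine dye staining dead-cell DNA was read by fluorescence at 0, 8, 16, 24, 32 and 40 h time points.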
# [10] = qHTS assay for identifying genotoxic compounds that show differential cytotoxicity against isogenic chicken DT40 cell lines with known DNA damage response pathways - Rad54/Ku70 mutant cell line (AID 743015); conditions: DT40 Rad54/Ku70 mutant viability, CellTiter-Glo, 40 h; activity change, negative = cytotoxicity: at 66.8 µM (top of the series); further: on the % scale 0 is the no-effect control and ±100 the full control effect; nearly all actives have a fitted effect of over 60% in size
# [11] = qHTS assay to identify small molecule antagonists of the retinoic acid receptor (RAR) signaling pathway (AID 1159552; further: nearly all actives have a fitted effect of over 50% in size; further: potency means the concentration at half of the fitted maximal effect)
# In short: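 Retinol signaling pathway inhibitors screened in C3RL4 RARE-luciferase reporter cells seeded overnight at 37 C, then compounds added with 1 uM (final) retinol as pathway substrate. After 6 hr at 37 C, luciferase luminescence read after 30 min at room temperature.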
# [12] = qHTS assay to identify small molecule agonists of the estrogen receptor beta (ER-beta) signaling pathway - cell viability counter screen (AID 1259380); further: nearly all actives have a fitted effect of over 30% in size; further: potency means the concentration at half of the fitted maximal effect
# In short: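 ER-beta-UAS-bla HEK293T cells in medium with 2% charcoal-stripped FBS, pre-incubated 6 hr, then treated 16 hr at 37C. Cytotoxicity read in the same wells by CellTiter-Glo luminescence after 30 min at room temperature.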
# [13] = target: Progesterone receptor (Homo sapiens) (UniProt P06401); assay: qHTS assay to identify small molecule agonists of the progesterone receptor (PR) signaling pathway (AID 1346784; calls by dose curve; further: potency means the concentration at half of the fitted maximal effect; nearly all actives have a fitted effect of over 30% in size); conditions: PR-UAS-bla HEK293T, beta-lactamase FRET ratio, 16 h; activation: at 92.4 µM (top of the series) unless noted
# Sequence of UniProt P06401 (P06401 whole entry, looked up): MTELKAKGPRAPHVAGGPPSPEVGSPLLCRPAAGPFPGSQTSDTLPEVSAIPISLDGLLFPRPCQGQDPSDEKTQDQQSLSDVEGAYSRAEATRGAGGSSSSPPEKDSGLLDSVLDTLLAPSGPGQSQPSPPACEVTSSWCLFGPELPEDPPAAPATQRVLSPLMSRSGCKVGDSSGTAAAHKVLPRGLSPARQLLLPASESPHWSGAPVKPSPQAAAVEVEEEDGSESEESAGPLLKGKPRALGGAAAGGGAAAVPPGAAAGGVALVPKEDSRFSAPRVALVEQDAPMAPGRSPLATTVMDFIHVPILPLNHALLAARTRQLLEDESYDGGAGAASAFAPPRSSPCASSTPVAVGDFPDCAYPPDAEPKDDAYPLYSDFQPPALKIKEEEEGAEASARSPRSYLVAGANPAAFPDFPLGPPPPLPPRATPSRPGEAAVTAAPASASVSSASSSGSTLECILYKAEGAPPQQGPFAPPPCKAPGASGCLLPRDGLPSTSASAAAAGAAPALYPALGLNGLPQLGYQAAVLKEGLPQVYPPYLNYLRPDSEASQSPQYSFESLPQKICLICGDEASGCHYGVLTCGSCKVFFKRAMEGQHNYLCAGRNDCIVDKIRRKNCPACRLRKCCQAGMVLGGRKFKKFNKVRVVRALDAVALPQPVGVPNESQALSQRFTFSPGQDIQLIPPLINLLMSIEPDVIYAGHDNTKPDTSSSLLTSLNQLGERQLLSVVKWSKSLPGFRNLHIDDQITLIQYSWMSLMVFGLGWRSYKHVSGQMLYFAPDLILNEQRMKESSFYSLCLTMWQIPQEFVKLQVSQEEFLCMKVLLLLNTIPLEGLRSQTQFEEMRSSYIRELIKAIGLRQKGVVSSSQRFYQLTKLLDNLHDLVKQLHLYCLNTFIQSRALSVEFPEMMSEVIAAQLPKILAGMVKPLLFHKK
# In short: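 PR-UAS-bla HEK 293T cells (beta-lactamase reporter under UAS) in 2% charcoal-stripped FBS, dosed with 23 nL compound after 6 hr, incubated 16hr at 37C. LiveBLAzer B/G FRET substrate added, fluorescence read after 2 hours.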
# [14] = target: Estrogen receptor (Homo sapiens) (UniProt P03372); assay: qHTS assay to identify small molecule agonists of the estrogen receptor alpha (ER-alpha) signaling pathway using the BG1 cell line (AID 743079); conditions: BG1Luc4E2 cells, ERE-luciferase agonist, 22 h; activation: at 70.3 µM (top of the series) unless noted; further: nearly all actives have a fitted effect of over 20% in size; further: potency means the concentration at half of the fitted maximal effect
# Sequence of UniProt P03372 (P03372 whole entry, looked up): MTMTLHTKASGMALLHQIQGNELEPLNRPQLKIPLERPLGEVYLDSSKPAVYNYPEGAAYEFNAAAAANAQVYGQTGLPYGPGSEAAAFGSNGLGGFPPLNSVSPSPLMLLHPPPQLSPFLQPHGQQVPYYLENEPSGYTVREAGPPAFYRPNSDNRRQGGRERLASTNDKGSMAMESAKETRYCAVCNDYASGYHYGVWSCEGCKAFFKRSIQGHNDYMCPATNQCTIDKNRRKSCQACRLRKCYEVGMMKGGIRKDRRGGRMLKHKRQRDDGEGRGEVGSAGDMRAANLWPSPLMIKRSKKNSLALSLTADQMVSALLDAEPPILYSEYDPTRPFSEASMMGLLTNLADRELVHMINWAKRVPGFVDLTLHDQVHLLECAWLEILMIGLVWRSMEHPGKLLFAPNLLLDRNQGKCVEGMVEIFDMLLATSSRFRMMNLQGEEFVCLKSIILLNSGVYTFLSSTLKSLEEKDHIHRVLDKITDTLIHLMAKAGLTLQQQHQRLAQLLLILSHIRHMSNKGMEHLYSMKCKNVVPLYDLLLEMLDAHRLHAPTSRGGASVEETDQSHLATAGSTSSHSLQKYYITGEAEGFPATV
# [15] = A CellTox Green Cytotoxicity Assay to monitor cytotoxicity in HEK293 cells - 32 hour (AID 1224881); further: potency means the concentration at half of the fitted maximal effect; nearly all actives have a fitted effect of over 40% in size
# In short: as §2
# [16] = qHTS assay to identify small molecule antagonists of the estrogen receptor alpha (ER-alpha) signaling pathway - cell viability counter screen (AID 743074; calls by dose curve;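 further: HEK293 cells carrying ER-alpha-UAS-bla reporter stimulated with 17beta-estradiol; nearly all actives have a fitted effect of over 45% in size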; further: potency means the concentration at half of the fitted maximal effect)
# [17] = Caspase-3/7 induction in CHO-K1 cells by small molecules, qHTS cell viability counter screen (AID 1346979); further: on the % scale 0 is the no-effect control and ±100 the full control effect; nearly all actives have a fitted effect of over 35% in size
# In short: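 Wild-type CHO-K1 cells (1,500/well) treated with compound after 5 h plating; after 16 h at 37C, viability read as CellTiter-Fluor fluorescence following 1 h reagent incubation, in the same wells as the caspase read.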
# [18] = target: Estrogen receptor beta (Homo sapiens) (UniProt Q92731); assay: qHTS assay to identify small molecule agonists of the estrogen receptor beta (ER-beta) signaling pathway (AID 1259377; active means well fitted activation curve with a large enough effect in the signal ratio in the repeat runs, not every such curve was filed as active; inconclusive means weak or mixed curves, or effect the other way; the % refers to the signal ratio; further: on the % scale 0 is the no-effect control and ±100 the full control effect); conditions: ER-beta-UAS-bla HEK293T, beta-lactamase FRET ratio, 16 h; activation: at 92.4 µM (top of the series) unless noted
# Sequence of UniProt Q92731 (Q92731 whole entry, looked up): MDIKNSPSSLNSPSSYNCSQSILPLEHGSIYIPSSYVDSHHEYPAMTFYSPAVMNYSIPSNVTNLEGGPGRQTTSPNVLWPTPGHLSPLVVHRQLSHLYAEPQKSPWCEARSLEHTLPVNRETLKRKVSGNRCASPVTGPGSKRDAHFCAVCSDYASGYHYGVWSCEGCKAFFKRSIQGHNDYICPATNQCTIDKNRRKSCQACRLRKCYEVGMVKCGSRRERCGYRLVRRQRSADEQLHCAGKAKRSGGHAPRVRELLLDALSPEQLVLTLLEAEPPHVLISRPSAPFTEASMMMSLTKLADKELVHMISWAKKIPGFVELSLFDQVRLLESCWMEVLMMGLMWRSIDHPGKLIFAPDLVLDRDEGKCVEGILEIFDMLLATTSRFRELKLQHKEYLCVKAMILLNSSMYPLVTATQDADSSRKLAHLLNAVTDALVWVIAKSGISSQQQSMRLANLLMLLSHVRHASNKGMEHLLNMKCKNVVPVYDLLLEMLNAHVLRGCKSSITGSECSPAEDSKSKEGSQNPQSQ
# In short: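 ER-beta-UAS-bla HEK293T cells in medium with 2% charcoal-stripped FBS were exposed to compounds for 16 h at 37C. Beta-lactamase reporter activity was read as fluorescence after 2 h with LiveBLAzer B/G FRET substrate at room temperature.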
# [19] = target: Peroxisome proliferator-activated receptor delta (Homo sapiens) (UniProt Q03181); assay: qHTS assay to identify small molecule antagonists of the peroxisome proliferator-activated receptor delta (PPARd) signaling pathway (AID 743215; active means well fitted inhibition curve with a large enough effect in the signal ratio in the repeat runs, not every such curve was filed as active; inconclusive means weak or mixed curves, or effect the other way; inactive means no such curve, though single readings can be large or run the other way; the % refers to the signal ratio;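 further: cells stimulated with agonist L165041 at 300 nM final during compound exposure; on the % scale 0 is the no-effect control and ±100 the full control effect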); conditions: HEK293H PPARd-UAS-bla, beta-lactamase FRET ratio, antagonist, 17 h; ratio activity, negative = inhibition: at 62 µM (top of the series) unless noted
# Sequence of UniProt Q03181 (Q03181 whole entry, looked up): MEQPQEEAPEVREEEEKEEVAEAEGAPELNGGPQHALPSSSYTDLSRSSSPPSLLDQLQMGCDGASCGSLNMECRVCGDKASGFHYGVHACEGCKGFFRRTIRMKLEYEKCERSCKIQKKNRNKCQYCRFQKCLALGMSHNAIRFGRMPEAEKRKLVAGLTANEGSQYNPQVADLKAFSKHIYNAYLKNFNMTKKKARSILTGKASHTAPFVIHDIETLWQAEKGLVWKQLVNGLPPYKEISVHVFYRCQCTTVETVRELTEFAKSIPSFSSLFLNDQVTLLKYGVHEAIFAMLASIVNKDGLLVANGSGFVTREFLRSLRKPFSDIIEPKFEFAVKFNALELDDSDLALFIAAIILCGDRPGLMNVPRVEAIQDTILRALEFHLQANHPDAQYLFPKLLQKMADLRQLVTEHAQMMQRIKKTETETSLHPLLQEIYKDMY
# In short: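 PPARd-bla HEK293H cells (UAS-bla reporter) preincubated 5 h, then given compound plus 300 nM final L165041 agonist for 17 h at 37 C. Beta-lactamase activity read by LiveBLAzer B/G FRET substrate fluorescence after 2 h at room temperature.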
# Tags describe the fitted curve by direction and shape or compound fluorescence and quenching.
compound,measurement,setting,value
O=C(Cl)c1ccc(Cl)cc1,Potency,[1],"inconclusive: 61.6 µM [cytotoxic, single point]"
same,Potency,[2],"inconclusive: 54.9 µM [cytotoxic, single point]"
same,Potency,[3],"inconclusive: 54.9 µM [cytotoxic, single point]"
COP(=S)(OC)Oc1ccc(S(=O)(=O)N(C)C)cc1,Potency,[4],"inconclusive: 33.5 µM [cytotoxic, single point] and active: 19.3 µM"
same,activation,[5],inconclusive: 13.7%
same,Potency,[6],inactive
same,Potency,[7],"inconclusive: 33.5 µM [cytotoxic, single point]"
same,Potency,[8],inactive
same,Potency,[9],inactive
CC(Oc1cc(Cl)c(Cl)cc1Cl)C(=O)O (configuration not stated),Potency,[10],inactive
same,Potency,[5],"inconclusive: 3.47 µM [activator, full curve]"
same,Potency,[11],"inconclusive: 34.4 µM [inhibitor, partial curve, poor fit]"
same,Potency,[1],inactive
same,Potency,[12],"inconclusive: 68.7 µM [cytotoxic, single point]"
same,Potency,[13],"inconclusive: 54.6 µM [rising, partial curve]"
Clc1ccc2ccccc2c1,activation,[14],inconclusive: 11.8% [phenotype inactive] [at 95 µM]
same,Potency,[1],"inconclusive: 56.6 µM [cytotoxic, single point]"
same,Potency,[9],"inconclusive: 56.6 µM [activator, single point]"
same,Potency,[15],active: 50.5 µM
same,Potency,[2],"inconclusive: 56.6 µM [cytotoxic, single point]"
same,Potency,[3],"inconclusive: 63.6 µM [cytotoxic, single point]"
C#CC(C)(C)O,Potency,[10],inactive
same,Potency,[16],"inconclusive: 15.9 µM [rising, partial curve, poor fit]"
same,Potency,[1],inactive
same,Potency,[17],inactive
Cc1ccc(CCl)cc1,Potency,[1],inactive
NC(=O)c1cc([N+](=O)[O-])cc([N+](=O)[O-])c1,activation,[14],inconclusive: -25.3% [phenotype inactive]
same,Potency,[5],inactive
same,Potency,[8],inactive
same,activation,[18],inconclusive: 3.61% [at 42.5 µM]
CN1COCN(Cc2cnc(Cl)s2)/C1=N\[N+](=O)[O-],Potency,[16],"inconclusive: 54.9 µM [rising, single point]"
same,Potency,[2],inactive
CCN[C@H](C)Cc1cccc(C(F)(F)F)c1,Potency,[4],active: 60.9 µM
same,Potency,[16],inactive
same,Potency,[11],inactive
same,Potency,[8],inactive
same,Potency,[9],"inconclusive: 61.4 µM [activator, partial curve, poor fit]"
CN[C@@H](C)[C@H](O)c1ccccc1,Potency,[14],active: 26.6 µM
same,Potency,[7],"inconclusive: 0.106 µM [cytotoxic, single point]"
same,Potency,[19],inactive
same,Potency,[18],inactive
same,Potency,[12],inactive
